# Measurements: PubChem BioAssay AID624202 (National Center for Advancing Translational Sciences (NCATS), 2012)
# Out of some 380,000 compounds screened, about 4,000 (1.1%) were called active. This list was built around the results that the source calls inconclusive (neither active nor inactive); the mix of calls is not that of the screen. The call rests on the fitted dose curve; in most records, active means well fitted activation curve with a large enough effect; inconclusive means small, poorly fitted or top-dose-only effect; inactive means no such curve, though single readings can be large or run the other way. Potencies of inconclusive entries are doubtful fits and often do not repeat.
# Assay: qHTS Assay to Identify Small Molecule Activators of BRCA1 Expression; further: nearly all actives have a fitted effect of over 80% in size
# Conditions: MCF7-BRCA1-FFLuc reporter, luminescence, 48 h; activation: at 46.1 µM (top of the series), scaled: vehicle 0%, 10 µM genistein 100% unless noted
# Procedure, shortened: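 Activators of BRCA1 expression were detected as increased firefly luciferase luminescence in engineered MCF7 cells after 48 h compound incubation. Signals were scaled to genistein 10 microM as full activation.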
# Potency means the concentration at half of the fitted maximal effect; tags describe the fitted curve by direction and shape.
SMILES,Potency,activation
Nc1nc2c(C(=O)N3CCOCC3)nnn2c2ccccc12,active: 2.82 µM,
Cc1cc(C)c(NC(=O)CN(C)C(=O)CCC(=O)c2ccc(C)s2)c(C)c1,inactive,
O=C(Nc1ccc([N+](=O)[O-])cn1)c1ccc2c(c1)OCO2,"inconclusive: 2.24 µM [activator, partial curve, poor fit]",
CCOc1ccc2nc(SCC(=O)N(C)C)[nH]c2c1,active: 10 µM,
C=CCN1N=C(/C=C/c2ccc(C)cc2)CCC1=O,active: 11.2 µM,
Cc1cc(N/C=C/C(=O)c2ccccc2)ccc1Br,"inconclusive: 31.6 µM [activator, single point]",
CC(=O)c1sc(NC(=O)c2ccccc2C)nc1C,active: 12.6 µM,
Nc1nn(-c2cccc(F)n2)cc1-c1ccccc1,"inconclusive: 0.794 µM [activator, full curve, poor fit]",
COc1ccc(NC(=O)CCNS(=O)(=O)c2ccc3c(c2)CCCC(=O)N3)cc1Cl,inactive,
O=C(Nc1nc(-c2cccc3ccccc23)cs1)c1ccc2c(c1)S(=O)(=O)c1ccccc1C2=O,"inconclusive: 31.6 µM [activator, single point]",
CCOc1ccc(OCC)c(NC(=O)CN2CCN(c3cccc(C)c3C)CC2)c1,inactive,
Cc1nc(SCC(=O)Nc2cc(C(N)=O)cc(C(N)=O)c2)c2c(C)c(C)sc2n1,inactive,
CCn1c(COc2ccccc2)nnc1SCC(=O)NC1CC1,inactive,
Cc1c(-c2nc(-c3ccc(C(C)(C)C)cc3)no2)n(C)oc1=O,,inconclusive: -49% [activator]
COc1cccc(OCCCCSc2ncccn2)c1,"inconclusive: 20 µM [activator, single point]",
Cc1cc(SCC(=O)c2ccccc2)nc(C)n1,active: 10 µM,
Cc1c(C(=O)N(CCO)Cc2ccccc2)oc2c(F)cccc12,"inconclusive: 22.4 µM [activator, single point]",
Cc1ccc(-c2nnc(NC3CCCC3)s2)cc1,"inconclusive: 1.12 µM [activator, full curve, poor fit]",
CC1(C)COC(c2coc3ccccc3c2=O)OC1,"inconclusive: 10 µM [activator, partial curve, poor fit]",
S=C(Nc1ccccc1Cl)N1CCC(c2ccccc2)C1 (stereo not given),"inconclusive: 12.6 µM [activator, partial curve, poor fit]",
CCOC(=O)/C(C#N)=C/c1cc(C)n(-c2ccc(C)cc2)c1C,"inconclusive: 2 µM [activator, full curve, poor fit]",
COC(=O)c1ccc(CN2C(=O)NC3(CCCCC3)C2=O)cc1,"inconclusive: 7.08 µM [activator, partial curve, poor fit]",
O=C(Cc1ccc(F)cc1)Nc1ccc(S(=O)(=O)N2CCCC2)cc1,inactive,
c1ccc2nc3c(cc2c1)CCCC3,"inconclusive: 7.08 µM [activator, partial curve, poor fit]",
CCOC(=O)c1ccc2c(c1)nc(C)n2CC,"inconclusive: 8.91 µM [activator, partial curve, poor fit]",

SMILES,Potency,activation
Cc1ccc(C2C(C(=O)c3cccs3)=C(O)C(=O)N2c2nnc(C)s2)cc1 (stereo not given),inactive,
COc1ccccc1C1N=C(c2ccccc2C)NO1 (stereo not given),active: 12.6 µM,
O=C1NC(c2ccc(Br)cc2)=N/C1=C/c1ccco1,"inconclusive: 1.58 µM [activator, partial curve, poor fit]",
N#Cc1ccsc1NC(=O)c1cccc([N+](=O)[O-])c1,inactive,
CCOc1ccc(/C=C/[N+](=O)[O-])c2ccccc12,inactive,
O=C(NCC1CCCO1)c1ccc2c3n(nc2c1)-c1ccccc1CO3 (stereo not given),active: 2.51 µM,
COc1cc2nc(N3CCCN(C)CC3)nc(N3CCN(C)CC3)c2cc1OC,inactive,
O=C(/C=C/Nc1ccc(F)cc1)c1ccc(Br)cc1,"inconclusive: 2 µM [activator, full curve, poor fit]",
O=C(CSc1ccccc1)Nc1ccc(N2CCOCC2)c(F)c1,active: 7.94 µM,
O=C(O)c1cccc(N/N=C/C2=C(Cl)c3cc(Cl)ccc3SC2)c1,,inconclusive: 122% [activator]
O=C(Nc1sc2c(c1C(=O)O)CCCC2)c1ccc(Cl)cc1,"inconclusive: 14.1 µM [activator, partial curve, poor fit]",
COc1ccc(-n2cnc3cc(NCc4ccco4)ccc32)cc1,active: 8.91 µM,
CCCN1CNc2c(c(=O)[nH]c(=O)n2CCc2ccc(OC)c(OC)c2)C1,inactive,
CC(=O)c1sc(NC(=O)c2ccccc2F)nc1-c1ccccc1,active: 2 µM,
COc1ccc2oc(-c3ccncc3)cc(=O)c2c1,"inconclusive: 2.24 µM [activator, full curve, poor fit]",
O=C(O)c1ccc(N/N=C/C(Br)=C/c2ccccc2)cc1,,inconclusive: 18.4% [activator]
Cc1ccc(-c2ccc(SCC(=O)c3ccccc3)nn2)cc1,"inconclusive: 7.94 µM [activator, partial curve, poor fit]",
CCOc1ccc(C(=O)NC(=S)Nc2ccccc2N2CCCCC2)cc1[N+](=O)[O-],inactive,
CN(C)C(=O)CSc1nnc(C23CC4CC(CC(C4)C2)C3)o1,active: 10 µM,
NS(=O)(=O)c1ccc2nc(NC(=O)c3ccc(Br)o3)sc2c1,"inconclusive: 10 µM [activator, partial curve, poor fit]",
CC(=O)Nc1ccc(C(=O)COC(=O)c2cccs2)c(F)c1,active: 14.1 µM,
Cc1ccc(-c2ccc(CN3C(CC(C)C)C(=O)N(Cc4cn(Cc5ccco5)nn4)CCS3(=O)=O)cc2)cc1 (stereo not given),inactive,
N/C(CS(=O)(=O)c1ccccn1)=N\OC(=O)c1ccc(Cl)cc1,"inconclusive: 10 µM [activator, partial curve, poor fit]",
Cc1cccc(-c2noc(-c3ccc(N4CCOCC4)c([N+](=O)[O-])c3)n2)c1,"inconclusive: 28.2 µM [activator, single point]",
O=C(NCCc1nc2ccccc2n1CCCOc1ccc2ccccc2c1)C1CCCCC1,inactive,
